Experimental data taken from patent US20240101717A1 (BIONECURE THERAPEUTICS, published 2024).

How the values were obtained:
[1] = target: T1, human Trop-2 (human, UniProt P09758 27-323); experiment: cell-based or functional assay
T1 sequence (looked up): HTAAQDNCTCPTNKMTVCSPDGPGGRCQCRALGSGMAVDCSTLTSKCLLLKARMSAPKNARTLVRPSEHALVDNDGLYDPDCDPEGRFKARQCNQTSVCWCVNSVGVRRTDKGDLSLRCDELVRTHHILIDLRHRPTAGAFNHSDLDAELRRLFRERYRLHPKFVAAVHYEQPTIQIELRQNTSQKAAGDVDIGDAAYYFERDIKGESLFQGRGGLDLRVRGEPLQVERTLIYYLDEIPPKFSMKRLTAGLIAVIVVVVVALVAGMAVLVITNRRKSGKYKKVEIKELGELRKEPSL

[2] = target: T1, human Trop-2; experiment: cell-based or functional assay; remark: listed apart in the source

Binder | IC50 (nM), in vitro cytotoxicity assay (CCK-8, 72 h) on MDA-MB-468 cells [1] [nM] | IC50 (nM), in vitro cytotoxicity assay on MDA-MB-468 cells [2] [nM]
HT2-BI-P203 ADC (bispecific antibody, human IgG1, kappa, BI-P203 payload conjugated via the maleimide group to reduced cysteines; positions not given) heavy: [about 100 residues not shown]GGGGSGGGGSGGGGS[about 120 residues not shown]GGGGSGGGGSGGGSQVQLQESGPGLVKPSETLSLTCTVSGFSLTSYGVNWIRQPPGKGLEWIGVMWAGGSTNYNSALMSRLTISKDTSKNQFSLKLSSVTAADTAVYYCARDENWDGAWFAYWGQGTLVTVSSASTKGPSVFPLAPSSKSTSGGTAALGCLVKDYFPEPVTVSWNSGALTSGVHTFPAVLQSSGLYSLSSVVTVPSSSLGTQTYICNVNHKPSNTKVDKRV[human IgG1 Fc not shown] light: DIVMTQSPDSLAVSLGERATINCKSSQSLLNSGTRKNYLAWYQQKPGQPPKLLISWASSRESGVPDRFSGSGSGTDFTLTISSLQAEDVAVYYCKQSYNLFTFGGGTKVEIKRTVAAPSVFIFPPSDEQLKSGTASVVCLLNNFYPREAKVQWKVDNALQSGNSQESVTEQDSKDSTYSLSSTLTLSKADYEKHKVYACEVTHQGLSSPVTKSFNRGEC | 14.1 | –
HT2(HT002)-MMAE ADC (bispecific antibody, human IgG1, kappa, MMAE-linker conjugated to reduced cysteines; positions not given) heavy: [about 100 residues not shown]GGGGSGGGGSGGGGS[about 120 residues not shown]GGGGSGGGGSGGGSQVQLQESGPGLVKPSETLSLTCTVSGFSLTSYGVNWIRQPPGKGLEWIGVMWAGGSTNYNSALMSRLTISKDTSKNQFSLKLSSVTAADTAVYYCARDENWDGAWFAYWGQGTLVTVSSASTKGPSVFPLAPSSKSTSGGTAALGCLVKDYFPEPVTVSWNSGALTSGVHTFPAVLQSSGLYSLSSVVTVPSSSLGTQTYICNVNHKPSNTKVDKRV[human IgG1 Fc not shown] light: DIVMTQSPDSLAVSLGERATINCKSSQSLLNSGTRKNYLAWYQQKPGQPPKLLISWASSRESGVPDRFSGSGSGTDFTLTISSLQAEDVAVYYCKQSYNLFTFGGGTKVEIKRTVAAPSVFIFPPSDEQLKSGTASVVCLLNNFYPREAKVQWKVDNALQSGNSQESVTEQDSKDSTYSLSSTLTLSKADYEKHKVYACEVTHQGLSSPVTKSFNRGEC | – | 6.12
